Laboratory results as given in the supplement of paper PMC10126150.
Sequences with one replicate were seen in a single cluster, so their values are uncertain.

System: ATP
Test: switch fluorescence ratio, 500 uM ATP over buffer (Cy3 cluster intensity, sum of 5 cycles each) (fold (ratio)); higher = stronger signal-on switching upon ATP binding; sequences stand for … in TCGTCGGCAGCGTCAGATGTGTATAAGAGACAGTTTTTTTTTTTTTTTTTTTTTTTTT…TC
Settings: aptamer strand: ATP DNA aptamer (quencher-CACCTGGGGGAGTATTGCGGAGGAAGG + anchor), 100 nM annealed; ATP concentration: 500 uM; one replicate
Outline: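 Exposure to 500 uM ATP lasted 15 min at 22 °C before imaging, and a selection-buffer image was taken beforehand, for Cy3-labelled switching-strand clusters on a modified Illumina MiSeq flow-cell annealed to 100 nM quencher-labelled ATP aptamer. Five buffer/ATP cycles were run with NaOH stripping and re-annealing between them. The fluorescence ratio per cluster is summed target-cycle over summed buffer-cycle Cy3 intensity, averaged per switch-domain sequence. Clusters outside 100-1000 RFU were excluded.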

Sequence	switch fluorescence ratio
TACATCCGAA	0.999
AAGTCAGACA	1.03
TAGGCCCAGT	0.993
CTGAGTGGGC	1
ACTTGTGTAT	0.979
CTCGCGGTTT	1.01
CTGCTGTAGT	1.03
AAATCTTGCG	1.06
CGAGCTATTA	1.25
GGATCGGTTA	0.984
CTGAGTCTT	1.04
CGTAACCAGG	1.9
ACTGTGAGG	1.05
CGTTCGTCTG	1.03
GCGCGGGAGG	0.998
TAAGTACGCG	1.08
ATAGGTGGCA	1.02
AGATTCCTCT	1.05
GCGGCAAATC	1.04
GTTGGTAACA	0.947
AAGGTTACGG	1.05
TTGAGTAGGA	0.966
TACTGGGGAA	1.01

Sequence	switch fluorescence ratio
GATATCTAA	0.992
GTCGCTGGCA	1
CGAGATGAAT	0.977
AAGGCCACAG	1.07
TCTCCTGGAG	1.02
TGGTACTCTA	1.03
CCTGACTATA	1.12
CGATAGTCTA	0.986
CGCCTGGATA	0.979
GGCGAAGATG	0.989
TCAATTCGTG	0.988
ACGTCATTGG	1.13
TCGATAATGT	1.04
CTTGCAACTT	1.05
GTCGATACTG	1.09
GAGACCGTTG	0.994
GATTTTATCC	0.986
ACATTAGGGC	1.02
GCTGTTGACG	0.983
GCTCGGAGGC	1.02
ACGTCGATA	1.03
AAACATTTCC	1.29
CCGGTGCCCA	1.14

Sequence	switch fluorescence ratio
GTAAAAGATA	1.01
CGGCCGGCGG	0.952
CGGAATGCGG	1.06
ATAAGACTTG	0.984
ATAATTCCGG	0.961
TGCTGCAATT	1.13
CGTTGACCCT	0.984
ACACGAGTT	0.983
GGTCAGGACA	1.01
GGTGTCGTTG	0.976
AGAAGCCGAT	1
TTAAAAAGCT	1.04
GGTCTGTAAC	1.02
AGCTATGGAC	1.09
CTATTCGTGA	1
TGGGACGGC	1.05
TAATTCCGCA	1.3
CGTGCTCCTG	1.03
CAGGAGGTAT	1.06
CCTTTCACGG	1.05
TGGGGAACCG	1.03
CGGTAGAGGA	0.957
GGAATCTTTG	1.05

Sequence	switch fluorescence ratio
GGATCCGGAT	1.04
CGGTTGAACG	0.986
CTTTGTGGTG	0.95
GAATCGGTGG	1.1
GTGAGGTAGT	1
GAGGGTAGCC	1.11
AGCTTATG	0.977
TGGGGGTTC	1.07
TGAGGTCTTT	0.984
ACCAATCCAG	1.01
GCGTAATGTA	0.967
CCGTGGGACA	1.06
GAAAGTTAGT	1.05
ATTCCGGGGT	1.06
CGGAGGCTTT	1.01
TGCCAACGTC	1.03
CGATGGACCC	1.05
TTCACTATGC	1.03
AGCCTACTCG	1.17
TAAGGGTGAG	1.03
ACCGTTACGC	1.41
TTATAAAGGC	1.11
CGTTGTGTCC	1

Sequence	switch fluorescence ratio
GTCTCTTATT	1.01
CATAGCCTGG	1
GACTTGCTAC	2.58
GATGCTTAGC	1.01
ACTAAAAAAG	1.01
GTGCAGTTGT	0.959
GTTGAATTC	0.985
GGTTCTCTTA	1.04
GCGTAAGTTT	1.04
AGGAAATGGA	1.03
CATTATGGCT	0.994
GCAAACTTCT	1.02
GGAGTATACA	0.983
TGATAGTGGT	0.997
TGACAGAGAT	1.03
GGAAGGTCGG	0.949
AGTATGGAGT	1.04
CGGGCCACAA	1.13
GTCGGCCAGG	1.26
TTGTCGGGAA	0.948
AAGGCCGTCA	1
GTGGGGGAAC	1.02
CTAGCAGAAA	0.939

Sequence	switch fluorescence ratio
GTTCCCGTTA	1.01
TTGTTATGAA	0.999
CACGACGGTC	1.15
GGCATCAGG	1.09
AAATACGTTG	1.03
AGTGGGTTAT	0.967
CCTTAAGTGC	1.46
ATCCTTCATC	1.67
TTGGTCCTAT	0.947
AATGTTG	0.991
GTGGTTTTGC	0.963
TTGGTTCAGG	0.978
ACAGAGTCCA	1.01
CGGTGACCGG	1
TTCAAAAGAG	1.01
CATCATCATT	1.03
CAATCGGCTG	0.981
TGTTTATTGC	0.995
TTACTGGCAA	1.28
AGGGTTCGCA	1.01
AATTGATGT	1.02
TAAGAGATAA	1.01
GTCTTCTGGG	1.03

Sequence	switch fluorescence ratio
GGATACCCTC	0.997
ATCTGATTCC	1.32
TAAATCGAA	1.01
TATAGATCCG	0.975
CGGTAGTCTC	1.02
CTTAGGGCGC	0.937
GGACGACGAC	1.2
TCACGAGCTA	1.13
TATTCCATAT	1.83
CTAGTAACTT	0.98
TATTCGTGGT	0.978
AGAAATCACG	1.01
GTGTGGATGG	1.02
GTTGAGGTAC	0.913
CCTCAATGGG	1.1
TCGTTCCCTC	1.05
ACTTGAGCTG	0.955
TATTAAGC	1
GGCGGCTTG	0.962
